Here are results for 88 molecules from publication PMC4336329 (PLoS ONE, 2015).

Molecules are shown by their SMILES. Hit rate of the full screen: of about 310,000 compounds, about 2,200 (0.71%) showed an effect of 50% or more. Effects have a minus sign here. Some of the results follow.

The target of the test is human ether-à-go-go-related gene (hERG) potassium channel (human, UniProt Q12809). As to the kind of experiment: primary screen, population patch clamp on CHO cells stably expressing hERG.
Chain of human ether-à-go-go-related gene (hERG) potassium channel (Q12809 whole entry, looked up): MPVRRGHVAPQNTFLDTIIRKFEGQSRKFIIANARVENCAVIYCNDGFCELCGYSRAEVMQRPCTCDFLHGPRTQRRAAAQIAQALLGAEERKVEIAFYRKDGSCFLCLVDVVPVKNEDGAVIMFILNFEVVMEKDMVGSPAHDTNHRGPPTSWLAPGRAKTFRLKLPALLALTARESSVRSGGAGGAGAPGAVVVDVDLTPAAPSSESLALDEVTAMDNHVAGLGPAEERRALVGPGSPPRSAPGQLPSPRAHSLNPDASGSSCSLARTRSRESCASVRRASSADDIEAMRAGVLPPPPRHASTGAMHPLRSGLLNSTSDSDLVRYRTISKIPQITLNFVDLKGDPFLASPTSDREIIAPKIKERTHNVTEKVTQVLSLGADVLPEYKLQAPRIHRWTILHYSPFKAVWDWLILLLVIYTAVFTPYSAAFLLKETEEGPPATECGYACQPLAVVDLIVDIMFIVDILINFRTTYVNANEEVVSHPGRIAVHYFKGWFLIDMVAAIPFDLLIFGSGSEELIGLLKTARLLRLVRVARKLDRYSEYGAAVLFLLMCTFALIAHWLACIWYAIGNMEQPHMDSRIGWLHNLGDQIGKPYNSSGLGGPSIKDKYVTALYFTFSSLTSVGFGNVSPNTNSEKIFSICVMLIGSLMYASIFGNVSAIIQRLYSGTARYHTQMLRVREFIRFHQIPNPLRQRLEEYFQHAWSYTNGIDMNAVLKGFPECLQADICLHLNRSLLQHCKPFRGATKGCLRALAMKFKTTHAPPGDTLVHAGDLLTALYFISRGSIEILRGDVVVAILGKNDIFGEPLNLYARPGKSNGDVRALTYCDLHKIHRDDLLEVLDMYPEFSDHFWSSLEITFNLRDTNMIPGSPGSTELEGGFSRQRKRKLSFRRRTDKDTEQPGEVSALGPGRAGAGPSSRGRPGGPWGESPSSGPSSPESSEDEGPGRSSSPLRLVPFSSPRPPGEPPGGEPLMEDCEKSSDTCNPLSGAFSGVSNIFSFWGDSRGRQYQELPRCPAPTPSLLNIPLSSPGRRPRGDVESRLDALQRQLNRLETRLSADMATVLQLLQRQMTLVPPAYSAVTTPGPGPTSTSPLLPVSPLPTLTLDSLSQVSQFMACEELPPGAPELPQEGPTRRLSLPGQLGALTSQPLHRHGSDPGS
Take `COCCN(C(=O)COC(=O)c1ccccc1Oc1ccccc1)c1c(N)n(Cc2ccccc2)c(=O)[nH]c1=O`: the “hERG current change (%, negative = inhibition) at 1uM” value was 5.73%.

Turning to `CC1SC(=Nc2ccccc2)N(S(=O)(=O)c2ccccc2)C1=O` (stereo not shown), the “hERG current change (%, negative = inhibition) at 1uM” value is recorded as 16.3%. Next, `CC(NC(=O)C(c1ccccc1)c1ccccc1)c1ccc(S(N)(=O)=O)cc1` (stereo not shown): 13.8%. `CN(C)S(=O)(=O)c1ccc(Cl)c(NC(=O)COC(=O)/C=C/c2ccc(S(=O)(=O)N3CCOCC3)cc2)c1`: the “hERG current change (%, negative = inhibition) at 1uM” value was found to be 16.2%. On to `O=C(C1CCN(S(=O)(=O)N2CCOCC2)CC1)N1CCC2(CC1)OCCO2`, for which the “hERG current change (%, negative = inhibition) at 1uM” value is 13.7%. Next, `CCCCN(C(=O)c1ccc(-c2ccc(Cl)cc2)o1)c1c(N)n(CC(C)C)c(=O)[nH]c1=O`: 19%; `COc1ccc(/C=N/Nc2nc(N3CCCC3)nc(N3CCCC3)n2)cc1O`: 7.51%. For the molecule `CCOc1cc(C(=O)NC2=NCCS2)cc(OCC)c1OCC`, the “hERG current change (%, negative = inhibition) at 1uM” value is on record as 8.34%. Regarding `COc1ccc(/C=N/NC(=O)c2ccc(Cl)c(S(N)(=O)=O)c2)cc1OCC(N)=O`, the “hERG current change (%, negative = inhibition) at 1uM” value was -0.711%.

`Cn1c(Cc2ccccc2)nnc1SCC(=O)Nc1ccccc1`: the “hERG current change (%, negative = inhibition) at 1uM” value amounted to 8.11%. In the case of `O=S(=O)(NCC1CCCO1)c1ccc(S(=O)(=O)N(Cc2ccc(F)cc2)C2CCCCC2)cc1` (stereo not shown), the “hERG current change (%, negative = inhibition) at 1uM” value is given as 1.01%. As for `COC(=O)C1=C(C(=O)c2ccc(C)cc2)C(c2ccc(OC)c(OC)c2)n2nnnc2N1` (stereo not shown), the “hERG current change (%, negative = inhibition) at 1uM” value is given as 16%.

Consider `Cc1ccc(C)c(C(=O)CSc2nc3ccccc3c(=O)[nH]2)c1`, for which the “hERG current change (%, negative = inhibition) at 1uM” value worked out at 11.7%. Take `O=C(O)c1cc(-n2[nH]c(=O)c3ccccc3c2=O)ccc1Cl`: the “hERG current change (%, negative = inhibition) at 1uM” value turned out to be 8.37%. For `COc1ccc(CCNC(=O)COc2ccc(C)nc2[N+](=O)[O-])cc1`, the “hERG current change (%, negative = inhibition) at 1uM” value came to 6.46%. Under `O=C(CCc1ccccc1)Nc1cc2c3c(c1)CC(=O)N3CCC2` stands 4.53%. Under `CC(=O)c1cnc2cc(-c3ccc(Cl)cc3)nn2c1C` stands 5.14%; under `Cn1cc([N+](=O)[O-])c(C(=O)NC2CCCCCC2)n1`, 15.5%; under `COC(=O)[C@H](Cc1ccccc1)NC(=O)N1CCCCCC1`, 5.61%.

For the molecule `C#Cc1ccc([C@H]2C=C(C(=O)O)O[C@@H](OCCCCO)C2)cc1`, the “hERG current change (%, negative = inhibition) at 1uM” value is listed as 21.1%. As to `Cc1ccc(C)c(N2CCN(S(=O)(=O)c3c(C)[nH]c(C)c3C(=O)N3CCCC3)CC2)c1`, the “hERG current change (%, negative = inhibition) at 1uM” value was found to be 14.4%. In the case of `CCN(CC(=O)Nc1cc(Cl)ccc1C)C(=O)C1CC(=O)N(Cc2ccccc2)C1` (stereo not shown), the “hERG current change (%, negative = inhibition) at 1uM” value turned out to be 4.18%. Under `Cc1cc(C(=O)COC(=O)c2ccccc2Br)c(C)n1CC1CCCO1` (stereo not shown) stands -7.72%. Next, `COc1ccc(N2CCN(S(=O)(=O)c3ccc4c(c3)NC(=O)C(C)S4)CC2)cc1` (stereo not shown): 9.05%; `Fc1ccc(-c2cc(-c3ccccc3)nc(-n3cccn3)n2)cc1`: 3%. Under `CC(C)Oc1cccc(NC(=O)c2cnccc2C(F)(F)F)c1` stands 10.8%. On to `S=C(Nc1cc(Cl)ccc1Cl)Nn1cnnc1`, for which the “hERG current change (%, negative = inhibition) at 1uM” value turned out to be 18.7%. In the case of `CN1C2CCC1CC(NC(=O)CSc1ccc(C(C)(C)C)cc1)C2` (stereo not shown), the “hERG current change (%, negative = inhibition) at 1uM” value amounted to 8.3%.

Regarding `COc1ccc2c(c1)CCC(C)N2C(=O)C(=O)c1c[nH]c2ccccc12` (stereo not shown), the “hERG current change (%, negative = inhibition) at 1uM” value came to 19.7%. Under `O=C(Nc1ccccc1C(=O)OCn1nnc2ccccc2c1=O)c1ccco1` stands 21.8%; under `Cl.c1ccc(CN2C3=NCCCN3c3ccccc32)cc1`, -29%; under `COC(=O)c1c(NC(=O)COC(=O)Cn2cnc3ccccc32)sc2c1CCCC2`, 1.92%. Next, `O=C(NCCC1=CCCCC1)c1cc(S(=O)(=O)N2CCOCC2)ccc1Cl`: 5.24%.

In the case of `O=C(O)C(c1ccccc1)N1C(=O)/C(=C/c2cccs2)SC1=S` (stereo not shown), the “hERG current change (%, negative = inhibition) at 1uM” value was determined as 14.6%. Take `O=C(c1ccc(N2CCN(C(=O)c3ccccc3Br)CC2)cc1)c1cccc(F)c1`: the “hERG current change (%, negative = inhibition) at 1uM” value is listed as 6.89%. Regarding `CCCn1c(=O)[nH]c(=O)c2c1nc(-c1ccc(C(F)(F)F)cc1)n2CCOC`, the “hERG current change (%, negative = inhibition) at 1uM” value was 10.1%.

In the case of `Cc1c(N=Cc2ccccn2)c(=O)n(-c2ccccc2)n1C`, the “hERG current change (%, negative = inhibition) at 1uM” value was determined as 4.31%. `CCC(C)NCCC(=O)Nc1ccc(Cl)c(S(=O)(=O)Nc2ccc(Cl)cc2)c1` (stereo not shown): the “hERG current change (%, negative = inhibition) at 1uM” value is reported as -15.9%. Next, `CN1CCN(C(=S)c2cn(Cc3ccc(Br)cc3)c3ccccc23)CC1`: 13.6%. `Clc1ccc(Cl)c(OCCN2CCOCC2)c1`: the “hERG current change (%, negative = inhibition) at 1uM” value was 7.42%.

Regarding `Cc1cccc(NC(=O)c2ccc([N+](=O)[O-])s2)n1`, the “hERG current change (%, negative = inhibition) at 1uM” value is 11.1%.

As to `S=C(Nc1cccc2ccccc12)NN1CCOCC1`, the “hERG current change (%, negative = inhibition) at 1uM” value was found to be 3.81%. Under `COC(=O)c1ccc(NC2=C(Cl)C(=O)OC2OC(=O)c2ccccc2)cc1` (stereo not shown) stands 6.59%; under `CCCCOc1ccc(Cc2n[nH]c(=S)n2N)cc1`, 11.4%; under `Cc1ccc(N2CC(C(=O)NCc3ccc(C)n3C)CC2=O)cc1` (stereo not shown), 3.75%.

As to `Cc1c(C(=O)Nc2ccc(-n3cnnn3)cc2)oc2ccccc12`, the “hERG current change (%, negative = inhibition) at 1uM” value amounted to 10.2%. With `O=C(NCCN1C(=O)S/C(=C\c2ccccc2)C1=O)c1cc(S(=O)(=O)N2CCOCC2)c(Cl)cc1Cl`, the “hERG current change (%, negative = inhibition) at 1uM” value was 0.756%. `O=C(CCc1c[nH]c2ccccc12)NC(Cc1ccccc1)C(=O)O` (stereo not shown): the “hERG current change (%, negative = inhibition) at 1uM” value amounted to 18.4%. As for `COc1ccccc1NC(=O)N1CCC(c2nnc(SCC(N)=O)n2C)CC1`, the “hERG current change (%, negative = inhibition) at 1uM” value is listed as 18.9%.

With `Cc1ccc(NC(=O)C2CCCCC2)c(O)c1`, the “hERG current change (%, negative = inhibition) at 1uM” value amounted to 14.5%. With `Cc1cc(C)nc(SCc2ccc(C(=O)NN=C3C4CC5CC(C4)CC3C5)cc2)n1`, the “hERG current change (%, negative = inhibition) at 1uM” value is recorded as -4.87%. Next, `CN(C)c1nc(NCc2ccccc2)nc(SCC(=O)Nc2ccc(Cl)c(Cl)c2)n1`: -2.44%; `CC(=O)c1sc(N)c(C(=O)OC(C)C)c1C`: 9.23%; `COc1ccc(-c2noc(=O)n2Cc2ccc(C#N)cc2)cc1`: -20.8%. As for `COc1cccc(N2CCN(C(=S)Nc3ccc(C)cc3C)CC2)c1`, the “hERG current change (%, negative = inhibition) at 1uM” value was 12.1%. `CC(C)[N+]1=C2C=CC=CC=C2SC12C([N+](=O)[O-])=CC(=[N+]([O-])[O-])C=C2[N+](=O)[O-]` (stereo not shown): the “hERG current change (%, negative = inhibition) at 1uM” value is listed as 9.83%.

As to `O=C(OCC(=O)N1CCc2ccccc21)c1nc(Cl)ccc1Cl`, the “hERG current change (%, negative = inhibition) at 1uM” value turned out to be 2.65%. For the molecule `O=C(Nn1cnnc1)c1ccc(F)c(S(=O)(=O)N2CCCCC2)c1`, the “hERG current change (%, negative = inhibition) at 1uM” value was determined as 10.5%. For the molecule `COc1ccc(-c2nc(CN3CCN(C(=O)c4ccco4)CC3)c(C)o2)c(F)c1`, the “hERG current change (%, negative = inhibition) at 1uM” value is reported as 5.04%. Next, `CCOC(=O)c1cc(C(C)=O)n2ccccc12`: 11.3%; `O=C(CSCc1ccc([N+](=O)[O-])cc1)Nc1cccc(C(=O)Nc2ccccc2C(=O)O)c1`: 16.3%. Next, `COC(=O)c1ccc(=O)n(Cc2ccco2)c1`: -0.924%; `CC(=O)Nc1cc(NC(C)=O)cc(C(=O)NC(C)(C)C)c1`: 6.11%. Consider `NC(=O)C1CCN(C2OC(=O)c3ccccc32)CC1` (stereo not shown), for which the “hERG current change (%, negative = inhibition) at 1uM” value was -15%. Turning to `COc1ccccc1/C=C/C(=O)OCC(=O)NC1CCCCCC1`, the “hERG current change (%, negative = inhibition) at 1uM” value amounted to 10.9%. For `CCCOc1ccc(C(=O)N2CCN(Cc3ccc4c(c3)OCO4)CC2)cc1`, the “hERG current change (%, negative = inhibition) at 1uM” value is listed as -46.6%.

On to `Cc1c(CC(=O)N[C@@H](C)C(=O)O)c(=O)oc2cc3occ(-c4ccccc4)c3cc12`, for which the “hERG current change (%, negative = inhibition) at 1uM” value turned out to be 18.2%.

For `COC(=O)C1=C(C)N(c2ccc(OC)cc2)C(C)=C(C(=O)OC)C1c1ccc(OC)cc1`, the “hERG current change (%, negative = inhibition) at 1uM” value was 14%. Under `CCOC(=O)c1ccc(NC(=S)NC(=O)c2nn(CC)cc2Br)cc1` stands 6.28%. Under `O=C(c1cc(Cl)ccc1Cl)N1CCc2ccccc21` stands 5.23%; under `O=C(NC(=S)Nc1ccccc1O)c1cccnc1`, 16%; under `CCCCSc1nc2sc3c(c2c(=O)n1-c1ccccc1)CCN(C)C3`, 6.7%. Under `COc1ccccc1C(=O)Nc1ccccc1C(=O)NC1CCCCC1` stands 6.43%; under `O=C(c1ccccc1)N1CCN(S(=O)(=O)c2ccccc2)CC1`, 6.24%; under `COc1cccc(CNC(=O)CCC2CCCN(C(=O)c3ccc(OC)c(F)c3)C2)c1` (stereo not shown), 9.6%. For the molecule `CCOc1ccc(N2C(=O)CC(n3ccc(C)n3)C2=O)cc1` (stereo not shown), the “hERG current change (%, negative = inhibition) at 1uM” value is recorded as 17.1%. Under `CCOCCCNc1nc2c(c(=O)n(C)c(=O)n2C)n1CCCc1ccccc1` stands 8.56%; under `CCCCNC(=O)c1onc(CSc2ccccc2CC)c1C(=O)O`, 13%; under `CCN(CC)c1cc2nonc2c2nonc12`, 10.2%.

Consider `C=CCn1c(=NC(=O)C2CCCCC2)sc2cc(NC(C)=O)ccc21`, for which the “hERG current change (%, negative = inhibition) at 1uM” value came out at 4.03%. Under `Cc1ccc(Cl)c(NC(=O)COC(=O)CNS(=O)(=O)/C=C/c2ccccc2)c1Cl` stands 16.8%; under `Cc1cc(CN(C)C(=O)c2cc(COc3ccc4ncccc4c3)on2)on1`, 12.3%. Regarding `O=C(CN1C(=O)NC2(CCCC2)C1=O)N1CCN(c2ccccc2O)CC1`, the “hERG current change (%, negative = inhibition) at 1uM” value was -2.47%. `O=C(COc1nc2ccccc2nc1N1CCOCC1)NCC(F)(F)F`: the “hERG current change (%, negative = inhibition) at 1uM” value was 10.2%.

In the case of `CCC(=O)c1ccc(O)cc1`, the “hERG current change (%, negative = inhibition) at 1uM” value is given as 17.5%. Under `Cc1cc(C)n(-c2ccc(C(=O)Nc3nc4ccccc4s3)cc2)n1` stands -5.03%; under `O=[N+]([O-])c1ccc(N2CCN(c3ccccc3)CC2)nc1`, 13.3%.

Consider `Cc1ccc(-n2c(C)nnc2SC(C)C(=O)N2CCCC2)cc1` (stereo not shown), for which the “hERG current change (%, negative = inhibition) at 1uM” value is listed as 11.6%.
